Source: ChEMBL document CHEMBL4888484, “Replenishing the malaria drug discovery pipeline: Screening and hit evaluation of the MMV Hit Generation Library 1 (HGL1) against asexual blood stage Plasmodium falciparum ,using a nano luciferase reporter read-out” (2022)
Screen size: about 150,000 compounds; about 540 (0.36%) showed an effect of 50% or more. This is one part of the list.

The compounds below were run on Plasmodium falciparum (assay: Primary screen in NF54 nanoGlo assay, in single point, at 2uM, 72h; a lower Z score goes with more inhibition). Conditions: timepoint 72 hour.
Assay type: functional, Erythrocyte
In the case of `COc1ccc(F)cc1CN1CCN(Cc2ncc[nH]2)[C@@H]2CS(=O)(=O)C[C@@H]21`, the “% Inhibition” value is reported as 1% and the Z score is reported as -0.24. With `Cc1sc(C=Cc2cc(C(F)(F)F)nn2C)nc1C(=O)O` the “% Inhibition” value was -2% and the Z score was 0.44. For `CCN(CC)c1nc(O)nc(N(CC)CC)n1`, the “% Inhibition” value was -1% and the Z score was 0.18. With `COC[C@@H]1CC(F)(F)CN1C1CCN(C(=O)CCn2cccn2)CC1` the “% Inhibition” value was -2% and the Z score was 0.36. For `C[C@H]1CNC(=O)CCN1C(=O)c1ccccc1Oc1ccccc1`, the “% Inhibition” value was -9% and the Z score was 1.42. For `CC(=O)N(CCc1noc(C2CCC2)n1)[C@H]1CCN(S(=O)(=O)N(C)C)C1`, the “% Inhibition” value was 2% and the Z score was -0.27. In the case of `COc1ccccc1CCC(=O)N1CC[C@](C)(O)[C@@H](O)C1`, the “% Inhibition” value is reported as 5% and the Z score is reported as -1.01. With `Cc1nn(C)c(C)c1CC(=O)Nc1cnns1` the “% Inhibition” value was -7% and the Z score was 0.9. `C[C@H]1CN(c2cc(C(=O)N3CCC(C)(C)c4ccccc43)ccn2)CCO1` was tested, and the “% Inhibition” value was -3% and the Z score was 0.49. With `O=C(NCc1cccnc1)N1C[C@@H]2[C@@H]3CC[C@@H](C3)[C@@H]2C1` the “% Inhibition” value was -10% and the Z score was 1.67. In the case of `Cn1cc(/C(N)=N/O)c(=O)c2ccc(N3CCOCC3)cc21`, the “% Inhibition” value is reported as 10% and the Z score is reported as -1.17. For `OCC1CCCN1CC1CCCN1c1ncc(C(F)(F)F)cc1Cl` (stereo not given), the “% Inhibition” value was -2% and the Z score was 0.22. With `CN(C)c1ncnc(NCc2ccccc2CN2CCCCC2)c1N` the “% Inhibition” value was -6% and the Z score was 0.87. In the case of `CCc1ncnc(N[C@@H](C)c2ccncc2)c1F`, the “% Inhibition” value is reported as -8% and the Z score is reported as 1.1. For `CN(CCc1nc(C2CC2)nn1-c1ccccc1C(F)(F)F)S(C)(=O)=O`, the “% Inhibition” value was -4% and the Z score was 0.36. `Cc1noc(CN2CCN([C@H]3CCN(Cc4c(F)cccc4Cl)C3)C2=O)n1` was tested, and the “% Inhibition” value was -4% and the Z score was 0.69. With `O=C(NCCOc1ccc2c(c1)OCO2)c1ccc2c(c1)OCCO2` the “% Inhibition” value was -8% and the Z score was 1.36. For `CCOc1ccc(Cc2nc(C)c(CC(N)=O)c(O)n2)cc1`, the “% Inhibition” value was -4% and the Z score was 0.5. In the case of `COc1ncccc1C(=O)Nc1cnns1`, the “% Inhibition” value is reported as 0% and the Z score is reported as -0.04. `CC(C)OC1CN(c2ncccc2C#N)C1` was tested, and the “% Inhibition” value was -14% and the Z score was 1.82. `c1ccc(CNc2cc(-c3ncccn3)c3cc[nH]c3n2)nc1` was tested, and the “% Inhibition” value was -19% and the Z score was 1.74. `CC(C)Oc1ccc(NC(=O)C(C)C)cc1` was tested, and the “% Inhibition” value was -5% and the Z score was 0.72. For `O=C([C@H]1CC12CCN(Cc1cccs1)CC2)N1CCN(c2ccccc2)CC1`, the “% Inhibition” value was -1% and the Z score was 0.22. In the case of `CCS(=O)(=O)Nc1ccnn1[C@@H](C)C1CC1`, the “% Inhibition” value is reported as 3% and the Z score is reported as -0.45. With `COc1ccc(C(=O)N[C@H]2CN[C@H](C(=O)N3C[C@H]4CC=CC[C@H]4C3)C2)cc1` the “% Inhibition” value was -11% and the Z score was 1.02. In the case of `NS(=O)(=O)c1ccc(CCNC(=O)C2CC3CCCCC3N2S(=O)(=O)c2ccccc2)cc1` (stereo not given), the “% Inhibition” value is reported as -9% and the Z score is reported as 1.46. In the case of `C[C@H](Oc1cccnc1)C(=O)NCCN1c2ccccc2NS1(=O)=O`, the “% Inhibition” value is reported as 1% and the Z score is reported as -0.07. For `CCCC(N)C(=O)N1C2CCC1CC(N(C)C(=O)c1ccccc1)C2` (stereo not given), the “% Inhibition” value was 1% and the Z score was -0.09. For `COCc1nocc1CNCCC(=O)OC(C)(C)C`, the “% Inhibition” value was -8% and the Z score was 1.03. In the case of `COc1cccc(F)c1C(C)NC(C)c1ccc(-n2cnnn2)cc1` (stereo not given), the “% Inhibition” value is reported as -8% and the Z score is reported as 0.8. For `O=C(NC[C@H]1CCc2ccccc21)NC1CCCC1`, the “% Inhibition” value was -2% and the Z score was 0.27. `O=C(C[C@H]1CCCCN(Cc2ccccc2)C1=O)N1CCN(c2ncccn2)CC1` was tested, and the “% Inhibition” value was -3% and the Z score was 0.62. `O=C(O)c1ccccc1CC(=O)N1CCCCCCC1` was tested, and the “% Inhibition” value was -3% and the Z score was 0.42. With `Cc1cccc2c1N(CC(=O)NCc1ccc(F)cc1)C(=O)[C@@H]1CCCN1C2=O` the “% Inhibition” value was -1% and the Z score was 0.19. With `Cc1c(CCNC(=O)NCC2CC23CCc2ccccc23)cnn1C` (stereo not given) the “% Inhibition” value was 36% and the Z score was -4.11. For `O=C(N[C@@H]1C[C@H]1C1CCCCC1)N1CCC(N2CCCCC2)C1` (stereo not given in full), the “% Inhibition” value was -9% and the Z score was 1.45. `N#Cc1nc(NC(=O)c2ccc3c(c2)OCO3)[nH]c1C#N` was tested, and the “% Inhibition” value was 3% and the Z score was -0.26. With `COc1ccc(Cl)cc1CN(CC#N)S(=O)(=O)N(C)C` the “% Inhibition” value was -6% and the Z score was 0.77. `COc1ccc(NC(=O)Cn2nc(N3CCC(C)CC3)c3ccccc3c2=O)cc1Cl` was tested, and the “% Inhibition” value was -7% and the Z score was 1.01. With `CC(C)[C@@H](C(=O)N(C)Cc1cccs1)S(=O)(=O)C1CCCCC1` the “% Inhibition” value was -7% and the Z score was 1.06. `Cc1cc(NC(=O)Cn2ncn(C)c2=O)nn1CC(F)(F)F` was tested, and the “% Inhibition” value was -5% and the Z score was 1.05. With `CN(C)c1ccc(NC(=O)c2cccc(C(=O)Nc3ccc(N(C)C)cc3)c2)cc1` the “% Inhibition” value was -26% and the Z score was 3.06. With `CC(=O)c1c(N)nc(C)nc1C(Cl)(Cl)Cl` the “% Inhibition” value was -27% and the Z score was 3.17. In the case of `Cc1ncoc1C(=O)N1CC(F)(F)C[C@H]1c1nnc(C2CC2)o1`, the “% Inhibition” value is reported as 2% and the Z score is reported as -0.42. `CC1(C)NC(=O)N(CC(=O)N2CCCNCC2)C1=O` was tested, and the “% Inhibition” value was -17% and the Z score was 2.57. For `O=S(=O)(c1cc(Cl)ccc1Cl)N1C[C@H](COCC2CC2)C2(CCOCC2)C1`, the “% Inhibition” value was -10% and the Z score was 1.34. With `CN1CCN(CC[C@H]2CCCCN2C(=O)CCc2ccncc2)CC1` the “% Inhibition” value was 2% and the Z score was -0.27. `CCN1CCC[C@@H]1CNC(=O)c1cc2c(=O)n(CC(C)C)c3ccccc3n2n1` was tested, and the “% Inhibition” value was 24% and the Z score was -2.34. `CN1C(=O)c2cc(C(F)(F)F)ccc2O[C@H]2CN(C(=O)NC3CCCCC3)C[C@H]21` was tested, and the “% Inhibition” value was -9% and the Z score was 1.32. In the case of `Cc1cccc(OCC(=O)N(Cc2cccc(Cl)c2)[C@H]2CCS(=O)(=O)C2)c1`, the “% Inhibition” value is reported as -11% and the Z score is reported as 0.94. In the case of `Cc1cc(NC(=O)[C@H]2CCOC2)nn1C1CCCCC1`, the “% Inhibition” value is reported as -16% and the Z score is reported as 2.04. In the case of `Oc1nc(-c2cccnc2)nc2c1CCCC2`, the “% Inhibition” value is reported as 0% and the Z score is reported as 0.07. With `N#CCNC(=O)Cc1ccc(F)cc1Cl` the “% Inhibition” value was -1% and the Z score was 0.12. With `CCN1CCCN(Cc2ccc3ccccc3n2)CC1=O` the “% Inhibition” value was -4% and the Z score was 0.6. With `COc1ccccc1CN1CCC([C@]2(Cc3ccccc3Cl)NC(=O)N(CC3CC3)C2=O)CC1` the “% Inhibition” value was 3% and the Z score was -0.35.
